# Publication PMC4336329 (PLoS ONE, 2015)
# Screen size: about 310,000 compounds; about 2,200 (0.71%) showed an effect of 50% or more. The effect is printed as a negative number. The list shows a part of the results.
# Target: human ether-à-go-go-related gene (hERG) potassium channel (human, UniProt Q12809)
# Assay: primary screen, population patch clamp on CHO cells stably expressing hERG
# human ether-à-go-go-related gene (hERG) potassium channel, sequence (Q12809 whole entry, looked up): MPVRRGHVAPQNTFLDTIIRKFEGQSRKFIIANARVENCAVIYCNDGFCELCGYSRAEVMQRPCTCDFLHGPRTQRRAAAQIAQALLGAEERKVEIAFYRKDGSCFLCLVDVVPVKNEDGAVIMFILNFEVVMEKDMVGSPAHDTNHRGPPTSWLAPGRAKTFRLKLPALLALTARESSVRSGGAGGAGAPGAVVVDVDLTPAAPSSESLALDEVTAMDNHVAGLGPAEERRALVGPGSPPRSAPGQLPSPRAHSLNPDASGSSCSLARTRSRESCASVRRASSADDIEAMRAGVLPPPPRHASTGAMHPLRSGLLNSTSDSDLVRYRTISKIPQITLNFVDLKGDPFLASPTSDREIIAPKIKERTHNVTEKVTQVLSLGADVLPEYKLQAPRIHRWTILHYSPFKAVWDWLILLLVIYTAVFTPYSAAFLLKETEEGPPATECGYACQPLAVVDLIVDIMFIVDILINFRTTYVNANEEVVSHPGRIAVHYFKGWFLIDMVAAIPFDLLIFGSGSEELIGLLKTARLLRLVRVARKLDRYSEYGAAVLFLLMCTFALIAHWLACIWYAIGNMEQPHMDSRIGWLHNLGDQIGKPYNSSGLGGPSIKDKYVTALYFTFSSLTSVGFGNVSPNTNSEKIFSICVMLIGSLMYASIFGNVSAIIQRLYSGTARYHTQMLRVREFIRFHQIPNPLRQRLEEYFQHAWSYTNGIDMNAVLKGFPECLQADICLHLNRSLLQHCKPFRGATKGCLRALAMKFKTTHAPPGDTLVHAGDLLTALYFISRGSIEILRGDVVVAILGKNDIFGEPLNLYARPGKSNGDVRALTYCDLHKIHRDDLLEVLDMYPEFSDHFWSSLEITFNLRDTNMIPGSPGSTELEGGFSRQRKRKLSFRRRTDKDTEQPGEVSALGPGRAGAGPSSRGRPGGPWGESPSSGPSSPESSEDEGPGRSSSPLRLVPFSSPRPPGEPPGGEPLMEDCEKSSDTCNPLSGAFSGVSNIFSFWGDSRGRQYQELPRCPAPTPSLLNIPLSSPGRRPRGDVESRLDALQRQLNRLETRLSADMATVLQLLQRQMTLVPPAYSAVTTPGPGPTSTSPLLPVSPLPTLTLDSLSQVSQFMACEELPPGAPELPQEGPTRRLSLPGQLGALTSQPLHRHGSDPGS
row,Compound,"hERG current change (%, negative = inhibition) at 1uM"
1,CCN(CC(=O)Nc1ccc(OC)cc1)C(=O)c1ccc(NS(=O)(=O)c2ccc(C(C)=O)cc2)cc1,10.7%
2,Cc1cc(Cl)ccc1OCC(=O)Nn1c(C)ccc1C,6.44%
3,COc1ccc(NC(=O)CCCCC#Cc2ccccc2)cc1,11.8%
4,Cc1nnc(SCc2nnc(-c3ccccc3)o2)n(N)c1=O,3.28%
5,CC1O[C@@H](O[C@H](C)CC[C@@H](C)O[C@H]2OC(C)[C@@H](O)C[C@H]2O)C(O)C[C@H]1O (stereo partly drawn),14%
6,COc1cc(C(=O)Nc2ccc(-c3nc4cc(C)ccc4o3)c(O)c2)cc(OC)c1OC,12.4%
7,O=C(C1=C[C@@H](c2coc3ccccc3c2=O)C[C@@H](OCCCCO)O1)N1CCN(Cc2ccccc2)CC1,0.453%
8,O=S(=O)(Nc1ccc(Cl)cn1)c1cnc(Cl)c(Br)c1,-0.796%
9,N#C/C(=C\c1ccccc1)C(=O)Nc1nncs1,15.8%
10,Cc1cccc(N(CC(=O)N/N=C/c2ccc(C(=O)O)cc2)S(=O)(=O)c2ccccc2)c1C,13.6%
11,CC(C)(C)c1ccc2c(c1)N(CC(=O)O)C(=O)CO2,-14.6%
12,O=C(CSc1nnc(-c2ccccc2F)n1C1CCCCC1)N1CCCC1,2.4%
13,O=C1c2ccncc2C(=O)N1CNc1ccc(Cl)cc1,20.1%
14,Cc1c(C)n(Cc2ccccc2)c2ncnc(Cl)c12,12.8%
15,Cn1c(SCC(=O)c2ccc(-c3ccccc3)cc2)nnc1-c1ccco1,11.5%
16,COc1ccc(/C=N/N2C(=N)SCC2=O)cc1,6.92%
17,CCC(C)NC(=O)CSc1nc2ccsc2c(=O)n1-c1ccc(OC)cc1 (stereo not drawn),-0.177%
18,COc1ccc(NS(=O)(=O)c2ccc3c(c2)CCN3C(=O)CCC(=O)O)cc1OC,4.41%
19,Cl.O=C(CNC1CCCCCC1)c1cccs1,8.77%
20,O=C(Nc1ccc(F)cc1F)N1CCN(C/C=C/c2ccccc2)CC1,-15.3%
21,CC1(C)Cc2cccc(Oc3cc(NN4CCCCC4)c([N+](=O)[O-])cc3[N+](=O)[O-])c2O1,16.2%
22,C/C(=N\NC(=O)c1cc(C)nc2ccccc12)c1cccs1,5.24%

row,Compound,"hERG current change (%, negative = inhibition) at 1uM"
1,CC(C)(C)n1ncc2c(=O)n(CC(=O)NCc3ccco3)cnc21,1.26%
2,COc1cccc(OCC(O)CO)c1 (stereo not drawn),4.53%
3,N#CCCn1cnc2ccccc21,12.9%
4,Cc1cc(C)cc(OCC(=O)Nc2ccc(N3CCOCC3)cc2N2CCOCC2)c1,2.48%
5,CNC(=S)N(CCc1c(C)[nH]c2ccc(OC)cc12)Cc1cc(OC)c(OC)c(OC)c1,8.79%
6,COc1ccccc1NC(=S)NC(=O)C1CC1,7.83%
7,CN1/C(=C\C=[N+](C)c2ccccc2)C(C)(C)c2ccccc21.[I-],-8.39%
8,Cc1cc(O)c2c(c1)C(O)(C1OC(CO)C(O)C(O)C1O)c1cccc(O)c1C2=O (stereo not drawn),8.45%
9,Cc1ccc2c(CC(=O)Nc3sccc3C(N)=O)coc2c1,-2.41%
10,COc1ccc(CNC(=O)c2c(F)c(F)c(F)c(F)c2F)cc1,-13%
11,COC(=O)c1cn(NC(=O)c2cccc(N(C)C)c2)c(=O)c2ccccc12,18.2%
12,Cc1cc(CN(C)C(=O)C2CCC(=O)N(CCc3cccc(F)c3)C2)on1 (stereo not drawn),2.51%
13,OCC1(Cc2ccccc2)CCCN(Cc2cn[nH]c2-c2ccccc2)C1 (stereo not drawn),6.96%
14,COc1cccc(CN2CCNC(=O)C2CC(=O)N(C)C2CCCCC2)c1 (stereo not drawn),11.6%
15,COc1ccc(/C=C/C(=O)O)cc1O,14%
16,CCCCN(C(=O)c1[nH]c(C)c(C(=O)OCC)c1C)c1c(N)n(CCCC)c(=O)[nH]c1=O,8.9%
17,CC(C)(C)OC(=O)N1CCC(NC(=O)c2nc[nH]c2C(=O)NCc2ccccc2)CC1,22.5%
18,c1cncc(-c2nnc(SCc3cccc4ccccc34)o2)c1,0.0047%
19,CCCCn1c(SCC(=O)Nc2cccc(C)n2)nnc1-c1ccco1,-78%
20,COc1cccc(C(=O)CSc2nnc(COc3cccc4cccnc34)o2)c1,14.8%
21,COc1ccc(Cc2nnc(Nc3ccccc3)s2)cc1Br,12.8%
22,CCCCc1ccc(NC(=O)CSc2nc(=O)n3cc(C)ccc3n2)cc1,13.8%

row,Compound,"hERG current change (%, negative = inhibition) at 1uM"
1,Cc1ccc(S(=O)(=O)N(CC(=O)N2CCN(c3ccccc3F)CC2)C2CCCCC2)cc1,2.56%
2,O=C1C2=C(CCCC2)C(=O)N1c1cccc(OCCBr)c1,14.6%
3,CCOc1cc(NC2CS(=O)(=O)CC2O)c(OCC)cc1NC(=O)c1ccccc1 (stereo not drawn),10.5%
4,O=S1(=O)CCOC[C@H](CC2CCCCC2)N1Cc1cccc(Cl)c1,-4.14%
5,COc1ccc(C(O)(c2ccccc2OC)C(CN2CCOCC2)c2ccccc2)cc1.Cl (stereo not drawn),7.97%
6,Cc1cc(/C=C2/SC(=S)N(c3cccc(Cl)c3)C2=O)c(C)n1-c1cccnc1,4.88%
7,O=C1CC(c2ccccc2)c2ccc(O)cc2O1 (stereo not drawn),11.8%
8,CC(=O)c1cnc(Nc2cccc(C)c2)s1,7.68%
9,COC(=O)c1sccc1NC(=O)Nc1ccc(F)cc1F,7.72%
10,CCOc1ccc(-n2nnc3c(=O)n(CC(=O)c4ccccc4)cnc32)cc1,7.29%
11,Cc1ccccc1OCC(=O)Nc1nnc(C2CC2)s1,13.4%
12,O=C(N/N=C/c1cc([N+](=O)[O-])ccc1O)C12CC3CC(CC(C3)C1)C2,14.7%
13,O=C(NC1CCCCC1)c1ccc(COc2ccccc2)o1,11.8%
14,CCOC(=O)N1CCN(c2nc(-c3ccc(Cl)cc3)cs2)CC1,-8.51%
15,CN(C)C(=O)c1ccc(NC(=O)CN2C(=O)NC3(CCCc4ccccc43)C2=O)cc1 (stereo not drawn),7.64%
16,COc1ccc(CCN(C)C(=O)c2cc(=O)c3ccccc3o2)cc1OC,15.8%
17,COc1ccc(C2/C(=C(\O)c3ccc4c(c3)OCCO4)C(=O)C(=O)N2CCCn2ccnc2)cc1 (stereo not drawn),5.54%
18,CNC(=O)c1c(NC(NC(=O)c2ccco2)C(=O)c2ccc(Cl)cc2)sc2c1CCCC2 (stereo not drawn),10.1%
19,COC(=O)C1C2C=CC(C3CC23)C1C(=O)OCC(=O)c1ccc(OC)cc1 (stereo not drawn),6.58%
20,COc1cc(C(=O)NCC(=O)NC(C)c2ccc(-n3ccnc3)cc2)cc(OC)c1OC (stereo not drawn),7.75%
21,CCc1nc2ccccc2c(=O)n1/N=C/c1ccc(Cl)cc1,-6.86%
22,COc1ccc(C2CC(=O)NC3=C2C(=O)CCC3)cc1Cl (stereo not drawn),11.1%

row,Compound,"hERG current change (%, negative = inhibition) at 1uM"
1,C/C(=N\N1CCN(c2ccc(Cl)cc2)CC1)c1ccco1,8.12%
2,CN(CCCNC(=O)c1cccn2c(=O)c3ccccc3nc12)Cc1ccccc1,-75.3%
3,COc1ccc(-c2cc(C(=O)NCCN3CCOCC3)c3ccccc3n2)cc1,-1.54%
4,O=C(CCc1nc(-c2ccccc2F)no1)Nc1ccc(Oc2ccccc2)cc1,10.1%
5,COc1cc(NC(=O)CN2C(=O)CSc3ccc(S(=O)(=O)N4CCCC4)cc32)cc(OC)c1,10.8%
6,CC(=O)N(C)c1ccc(NC(=O)c2ccco2)cc1,12.2%
7,CCOC(=O)C1=C(C)N(C)C(C)=C(C(=O)OCC)C1c1cccnc1,2.03%
8,Cc1ccc(CSc2nnc(-c3ccc(NS(=O)(=O)c4ccccc4)cc3)o2)cc1,3.68%
9,CCOc1cccc(CNn2cnnc2)c1OCc1ccccc1,-0.546%
10,O=C(O)c1cc(NCc2cccs2)ccc1N1CCOCC1,-1.14%
11,O=C(NCc1cccs1)c1cc(-c2ccccc2)nc2ccccc12,10.4%
12,COc1ccc(-c2nn3c(C4CCCCC4)nnc3s2)cc1OC,3.73%
13,CC(=O)c1cccc(NC(=O)N2C3CCCC2CC(NC(=O)C2CC2)C3)c1 (stereo not drawn),13.8%
14,CCOC(=O)c1cc2c(=O)n3ccccc3nc2n(Cc2ccco2)c1=NC(=O)c1cccnc1,2.18%
15,CN(C)S(=O)(=O)c1ccc(Cl)c(C(=O)Nc2cccc([N+](=O)[O-])c2)c1,-3.12%
16,COc1cc(C(=O)N(C)CC(=O)Nc2cccc(F)c2)ccc1OCc1ccccc1,8.75%
17,C=CCOC(=O)c1cn(CC)c2nc(C)ccc2c1=O,-10.1%
18,CCc1cc(C(c2ccc(F)cc2)N2CCOCC2)c(NC(=O)c2ccccc2)s1 (stereo not drawn),11.2%
19,C=CCn1c(SCc2ccc(C(=O)NCCO)cc2)nc2ccccc2c1=O,5.66%
20,CC(C)(C)N(CC#CCC(O)(c1ccccc1)C1CCCC1)CCO (stereo not drawn),15.6%
21,COc1ccccc1NS(=O)(=O)c1cccc(C(=O)N/N=C/c2ccc(N3CCOCC3)cc2)c1,-0.405%
